PubChem BioAssay AID686979 (National Center for Advancing Translational Sciences (NCATS), 2013)
In all, about 420,000 compounds went through this assay and about 50,000 (12%) were called active. Inconclusive results, whose numbers are uncertain, are shown with a selection of clear calls. Calls come from the whole dose curve; as a rule, active = well fitted inhibition curve with a large enough effect; inconclusive = small, poorly fitted or top-dose-only effect; inactive = flat fitted curve, though single readings scatter. No potency is given beside an inconclusive call; the fits are too rough.
% is set by controls: 0 for no effect and ±100 for the full control effect; potency is the fitted concentration of half-maximal effect; tags give direction and shape of the fitted curve.

Assay: qHTS for Inhibitors of human tyrosyl-DNA phosphodiesterase 1 (TDP1): qHTS in cells in presence of CPT; note: nearly all actives have a fitted effect of over 55% in size
Settings: chicken DT40 Tdp1-/-;hTDP1 cells + 20 nM CPT, ATP luminescence, 48 h; activity change, negative = growth inhibition: at 46.2 µM (top of the series) unless noted
In short: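 Chicken DT40 Tdp1-/- cells stably complemented with human TDP1 were seeded at 400 cells/well in medium containing 20 nM camptothecin, exposed to pin-transferred compounds, and grown at 37 °C for at least 48 hr. Viability was read as ATP luminescence.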
With `O=c1c2ccccc2nc2c3ccccc3cnn12` the Potency was inconclusive [inhibitor, single point]. For `CCN(CC)C(=O)C1CCN(S(=O)(=O)c2c(C)noc2/C=C/c2cccc(OC)c2)CC1`, the Potency was inconclusive [inhibitor, single point]. For `COc1cccc(NC(=S)N/N=C2\CC(C)(C)Oc3ccc(O)cc32)c1`, the Potency was inconclusive [inhibitor, single point]. For `Cc1c(C(=O)N2CCCCC2)c(S(=O)(=O)NCc2ccc(Cl)cc2)c(C)n1C`, the Potency was inconclusive [inhibitor, single point]. In the case of `COC(=O)CSc1nn(-c2ccc(F)cc2)c(=S)s1`, the Potency was “inactive”. For `O=C(CCCCCNc1nc(=S)[nH]c2ccccc12)NCCc1c[nH]c2ccccc12`, the Potency was active: 18.4 µM. For `COc1cc(CNC(=O)c2ccc3c(c2)S(=O)(=O)c2ccccc2C3=O)cc(OC)c1`, the Potency was inconclusive [inhibitor, single point]. For `COc1ccc(/C=C/c2c(-c3ccc(OC)cc3)oc3ccccc23)cc1`, the Potency was “inactive”. For `O=C(CCc1ccccc1)NNC(=S)NC(=O)c1ccc(Cl)cc1`, the Potency was inconclusive [inhibitor, single point]. For `Cc1ccccc1-c1noc(-c2ccc(NCc3ccco3)c([N+](=O)[O-])c2)n1`, the Potency was inconclusive [inhibitor, partial curve]. With `CCOc1ccc(NC(=O)c2cc(S(=O)(=O)NC3CCCCCC3)ccc2F)cc1` the Potency was inconclusive [inhibitor, single point]. For `CC(OC(=O)c1cc(S(=O)(=O)N2CCOCC2)ccc1F)C(=O)NC1CCCC1` (stereo not given), the Potency was “inactive”. In the case of `COc1ccccc1NC(=O)c1ccc(N2CC3CC(C2)c2cccc(=O)n2C3)c(NC(=O)c2ccncc2)c1` (stereo not given), the Potency was “inactive”. In the case of `COc1ccc(/C=N/NC(C)(C)C)c(OC)c1`, the Potency was inconclusive [inhibitor, full curve, poor fit]. In the case of `CCOc1ncccc1C(=O)N1CCN(c2cc(Cl)ccc2C)CC1`, the Potency was active: 0.82 µM. For `CCN(CC)S(=O)(=O)c1ccc(-c2nnc(SCC(=O)Nc3ccc4c(c3)OCO4)o2)cc1`, the Potency was inconclusive [inhibitor, single point]. With `O=c1cnn([C@@H]2O[C@H](CO)[C@@H](O)[C@H]2O)c(=O)[nH]1` the Potency was active: 11.6 µM. In the case of `Cc1cc(C)nc(SCC(=O)N2CCc3ccccc32)n1`, the Potency was “inactive”. With `CCc1noc(C)c1C(=O)Nc1nc2ccc(S(C)(=O)=O)cc2s1` the Potency was inconclusive [inhibitor, single point]. With `CCOC(=O)CCCCCC(=O)Nc1ccc2c(c1)C(=O)N([C@H](C)CO)C[C@H](C)[C@@H](CN(C)C(=O)Nc1ccccc1)OCCCC[C@@H](C)O2` the Potency was inconclusive [inhibitor, single point]. For `O=c1ccc2cc3c4c(c2o1)CCCN4CCC3`, the Potency was inconclusive [inhibitor, single point]. For `N#C/C(=C\c1cn(Cc2ccccc2)c2ccccc12)C(=O)NCc1ccco1`, the Potency was inconclusive [inhibitor, single point]. For `COc1ccc2c(Sc3ccc(C)cc3)c(C(=O)NC(C)C)[nH]c2c1`, the Potency was inconclusive [inhibitor, single point]. For `O=C(Nc1ccn(C2CCC(CO)O2)c(=O)n1)c1ccccc1` (stereo not given), the Potency was “inactive”. For `Cc1ccc(NS(=O)(=O)c2ccc3c(c2)NC(=O)CO3)cc1C`, the Potency was inconclusive [inhibitor, single point]. With `O=S(=O)(Cc1noc(-c2ccccc2Cl)n1)c1ccccn1` the Potency was “inactive”. For `COc1cccc(Cn2cnc(-c3ccccc3OC)c2-c2cccs2)c1`, the Potency was inconclusive [inhibitor, single point]. For `CCOc1ccccc1NC(=O)CSc1nccn1-c1cccc(C)c1`, the Potency was active: 20.6 µM. In the case of `N#Cc1c(-c2ccc(F)cc2)c(-c2ccc(F)cc2)nn(CCO)c1=O`, the Potency was active: 4.61 µM. With `CCCCCn1c(N2CCN(c3cccc(Cl)c3)CC2)nc2c1c(=O)[nH]c(=O)n2C` the Potency was active: 20.6 µM. With `CC1(C(=O)NS(=O)(=O)C2CC2)CCN(C(=O)c2cccc(OC(F)(F)F)c2)C1` (stereo not given) the activity change, negative = growth inhibition was inconclusive: -31.9% [inhibitor]. For `O=c1[nH]nc(-c2ccc(F)cc2)cc1Cc1cccs1`, the Potency was “inactive”. For `CCOc1ccc(C2CC(=O)c3c([nH]c(C(=O)OCC4CCCCC4)c3C)C2)cc1` (stereo not given), the Potency was inconclusive [inhibitor, partial curve]. In the case of `COc1ccccc1CNC(=O)CSc1ccc(C(=O)Nc2ccccc2OC)cc1[N+](=O)[O-]`, the Potency was active: 9.2 µM. With `O=c1oc2ccccc2c(N2CCN(c3ccccc3F)CC2)c1CN1CCCC1` the Potency was inconclusive [inhibitor, single point]. In the case of `Cc1ccc(S(=O)(=O)C(CNC(=O)C(=O)NCCc2ccccc2)c2cccs2)cc1` (stereo not given), the Potency was active: 16.4 µM. For `COC(=O)c1ccc(OCC(O)CN2CCOCC2)cc1` (stereo not given), the Potency was “inactive”. In the case of `C=CCn1c(=O)c(C(C)=O)cn(N(C)c2ncc(C(F)(F)F)cc2Cl)c1=O`, the Potency was “inactive”. For `COC(=O)c1cc2c(ccn2-c2ccc(F)cc2)n1CC(=O)N1CCN(C(=O)c2ccco2)CC1`, the Potency was inconclusive [inhibitor, single point]. In the case of `Cc1ccc2[nH]c(C)c(CCNC(=O)C3CCCCC3C(=O)OCC(F)(F)F)c2c1` (stereo not given), the Potency was “inactive”. With `CSc1nc(SCC(=O)NCc2ccco2)c2c3c(sc2n1)CN(C)CC3` the Potency was “inactive”. In the case of `CCCc1cc(=O)oc2cc(C)c3c(-c4ccccc4)coc3c12`, the Potency was inconclusive [inhibitor, single point]. With `Cc1ccc(NC(=O)C(=O)C2C(=O)Nc3ccccc32)cc1` (stereo not given) the Potency was inconclusive [inhibitor, partial curve]. For `NC(=O)CN(Cc1ccccc1)S(=O)(=O)c1ccc2c(c1)OCCO2`, the Potency was “inactive”. With `C(=C\c1ccccc1)/CN1CCN(C(c2cccs2)c2nnnn2-c2ccc3c(c2)OCCO3)CC1` (stereo not given) the Potency was inconclusive [inhibitor, single point].
